{
  "source": "PubChem BioAssay AID485364",
  "about": "(National Center for Advancing Translational Sciences (NCATS), 2010)",
  "note": "The campaign covered roughly 360,000 compounds. About 11,000 (3.1%) were called active. This list was built around the results that the source calls inconclusive (neither active nor inactive); the mix of calls is not that of the screen. Calls come from the whole dose curve; as a rule, active = well fitted inhibition curve with a large enough effect; inconclusive = small, poorly fitted or top-dose-only effect; inactive = no such curve, though single readings can be large or run the other way. Potencies of inconclusive entries are left out as doubtful fits. Where a structure was tested more than once in an assay, its records may differ in their call. Potency is the fitted concentration of half-maximal effect; tags give direction and shape of the fitted curve.",
  "data": [
    {"molecular_target": "Schistosoma mansoni thioredoxin glutathione reductase (TGR) (UniProt Q962Y6)", "test": "qHTS Assay for the Inhibitors of Schistosoma Mansoni Peroxiredoxins; note: nearly all actives have a fitted effect of over 60% in size", "conditions": "purified TGR, DTNB reduction, TNB absorbance 405 nm; series mostly up to 114 µM", "method_in_brief": "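First, TGR (20 nM dispensed) and NADPH were mixed with compound. Second, a 15 min room-temperature incubation followed. Third, further NADPH and then DTNB were added to start the reaction. Finally, TNB absorbance was monitored kinetically.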", "values": [
      {"smiles": "C=C/C(C)=C/CC1C(=C)CCC2C(C)(C(=O)O)CCCC12C", "note": "(centres undefined)", "Potency": "active: 31.6 µM"},
      {"smiles": "CC(C)(O)C#Cc1ccc(C(=O)NCc2cccs2)s1", "Potency": "inactive"},
      {"smiles": "COc1ccc(CCNC(=O)c2ccc(-c3ccc([N+](=O)[O-])cc3Cl)o2)cc1", "Potency": "inactive"},
      {"smiles": "Cc1ccc2cc3c(nc2c1)N(Cc1ccco1)CC3", "Potency": "inconclusive [inhibitor, partial curve]"},
      {"smiles": "CN(c1ccc(O)cc1)S(=O)(=O)c1ccc2ccccc2c1", "Potency": "inactive"},
      {"smiles": "O=C(N/C(=C\\c1cccc([N+](=O)[O-])c1)C(=O)N1CCCCC1)c1cccs1", "Potency": "inconclusive [inhibitor, partial curve]"},
      {"smiles": "Cc1ccc(S(=O)(=O)CCC(=O)Nc2ccccc2N2CCCC2)cc1", "Potency": "inactive"},
      {"smiles": "Cc1ccc(-c2csc3ncn(/N=C/N(C)C)c(=O)c23)o1", "Potency": "inconclusive [inhibitor, partial curve]"},
      {"smiles": "c1ccc(N2CC3CCc4ccccc4C3=N2)cc1", "note": "(centres undefined)", "Potency": "active: 44.7 µM"},
      {"smiles": "COCCN(C)Cc1cn(-c2ccc(F)cc2F)nc1-c1ccccc1C", "Potency": "active: 5.01 µM"},
      {"smiles": "CCn1c(SCC(=O)c2cc(OC)ccc2OC)nnc1C1CC1", "Potency": "inconclusive [inhibitor, partial curve]"},
      {"smiles": "CC(=C\\c1ccco1)/C=C(\\C#N)C(=O)NCCc1c[nH]c2ccccc12", "Potency": "inconclusive [inhibitor, partial curve]"},
      {"smiles": "Cc1nn(C)cc1C1C(C#N)=C(N)N(c2ccc(F)c([N+](=O)[O-])c2)C2=C1C(=O)CCC2", "note": "(centres undefined)", "Potency": "inconclusive [inhibitor, single point]"},
      {"smiles": "Cc1cc(/C=C2\\SC(=Nc3ccccc3)NC2=O)c(C)n1-c1ccc(S(N)(=O)=O)cc1", "Potency": "inconclusive [inhibitor, partial curve, poor fit]"},
      {"smiles": "Cc1cc2c(=O)oc(-c3ccccc3Br)nc2s1", "Potency": "inconclusive [inhibitor, single point]"},
      {"smiles": "Cc1csc(NC(=O)CN2C(=O)c3ccccc3C2=O)c1C(N)=O", "Potency": "inconclusive [inhibitor, full curve]"},
      {"smiles": "CCOC(=O)Cc1csc(NC(=S)NC(=O)c2ccc([N+](=O)[O-])cc2)n1", "Potency": "inconclusive [inhibitor, full curve]"},
      {"smiles": "O=C(NNC(=O)c1ccccc1O)c1ccc(Br)cc1", "Potency": "inactive"},
      {"smiles": "CC12CN3CN(C1)CC(c1ccccc1)(C3)C2=O", "Potency": "inactive"},
      {"smiles": "COc1ccc2[nH]c(C)c(CCNCc3cccnc3)c2c1", "Potency": "inconclusive [inhibitor, partial curve]"},
      {"smiles": "COc1ccc(-c2c(C(F)(F)F)oc3c(CN4CCN(C)CC4)c(O)ccc3c2=O)cc1", "Potency": "inactive"},
      {"smiles": "CCS(=O)(=O)C1=NN2C(=N)/C(=C\\c3ccc(OC(=O)c4ccco4)cc3)C(=O)N=C2S1", "Potency": "active: 35.5 µM"},
      {"smiles": "CSCCC(=O)N1CCC(n2nccc2NC(=O)c2ccc3c(c2)OCO3)CC1", "Potency": "inactive"},
      {"smiles": "CCCOc1ccc(N2C(=O)CC(NNC(=O)c3ccc(COc4ccccc4)o3)C2=O)cc1", "note": "(centres undefined)", "Potency": "inconclusive [inhibitor, partial curve]"},
      {"smiles": "COc1ccc(NC(=O)c2ccc(-c3nc(CSc4ccccc4)c(C)o3)cc2)c(OC)c1", "Potency": "inactive"},
      {"smiles": "O=C1CC(c2ccco2)Sc2ccccc2N1", "note": "(centres undefined)", "Potency": "inconclusive [inhibitor, partial curve]"},
      {"smiles": "COc1ccc(/C=N/NC(=O)CN2CCCC2)cc1", "Potency": "inconclusive [inhibitor, full curve]"},
      {"smiles": "O=C1CN(c2nc3ccccc3n3cnnc23)CC(=O)N1CCc1ccccc1", "Potency": "active: 31.6 µM"},
      {"smiles": "CCOc1ccc2[nH]c(=O)c(CN(Cc3cccs3)Cc3nnnn3C(C)(C)CC)cc2c1", "Potency": "inactive"},
      {"smiles": "COc1ccccc1NC(=O)Cc1nc(CCl)cs1", "Potency": "inconclusive [inhibitor, full curve]"},
      {"smiles": "COc1ccc(C(=O)C(C)[n+]2ccc(-c3nnc4n3CCCCC4)cc2)cc1", "note": "(centres undefined)", "Potency": "inconclusive [inhibitor, partial curve]"},
      {"smiles": "COc1ccc(C(=O)c2no[n+]([O-])c2C(=O)c2ccc(OC)cc2)cc1", "Potency": "active: 0.355 µM"},
      {"smiles": "CS(=O)(=O)c1nc(S(=O)(=O)c2ccc(Cl)cc2)c(NCc2ccccn2)s1", "Potency": "active: 35.5 µM"},
      {"smiles": "Cc1ccc2c(c1)-c1onc(C(=O)N(C)c3ccc(F)cc3)c1CO2", "Potency": "inactive"},
      {"smiles": "CCC(C)NS(=O)(=O)c1ccc(S(=O)(=O)N(CC(=O)Nc2ccccc2)Cc2ccco2)cc1", "note": "(centres undefined)", "Potency": "inconclusive [inhibitor, partial curve]"},
      {"smiles": "O=C(CCNc1cc(Cl)cc(Cl)c1)c1ccco1", "Potency": "inconclusive [inhibitor, full curve, poor fit]"},
      {"smiles": "CC1=C(C(=O)Nc2ccccc2C)C(c2ccc[nH]2)n2ncnc2N1", "note": "(centres undefined)", "Potency": "inconclusive [inhibitor, partial curve]"},
      {"smiles": "CCOC(=O)c1ccc(NC(=O)c2cc3ccccc3o2)cc1", "Potency": "inconclusive [inhibitor, full curve, poor fit]"},
      {"smiles": "COc1cc(/C=N/Nc2ccccc2C(F)(F)F)ccc1O", "Potency": "active: 39.8 µM"},
      {"smiles": "CCN(CC)CCNC(=O)C(C)c1nn(C)c(=O)c2ccccc12", "note": "(centres undefined)", "Potency": "inconclusive [inhibitor, partial curve, poor fit]"},
      {"smiles": "COc1cccc(NC(=O)COC(=O)c2ccc(C)c(S(=O)(=O)N3CCCCC3)c2)c1", "Potency": "inconclusive [inhibitor, single point]"},
      {"smiles": "COc1ccc(C(=O)N=c2c(C#N)cc3c(=O)n4cccc(C)c4nc3n2Cc2ccco2)cc1", "Potency": "inconclusive [inhibitor, partial curve]"},
      {"smiles": "Cc1cccc(C)c1OCC(=O)NNC(=S)NC(=O)C1CC1", "Potency": "inactive"},
      {"smiles": "C=CCNC(=S)Nc1ccc2nc(C)oc2c1", "Potency": "inconclusive [inhibitor, partial curve]"},
      {"smiles": "CC(NC(=O)CSc1nc2c(cc1C#N)CN(C)CC2)c1ccccc1", "note": "(centres undefined)", "Potency": "inactive"},
      {"smiles": "CC(C)c1nc(CNC(=O)CC2C(=O)NCCN2Cc2cccc(F)c2F)cs1", "note": "(centres undefined)", "Potency": "inconclusive [inhibitor, partial curve]"},
      {"smiles": "Cc1ccc(C(=O)CSc2nnc(-c3ccco3)n2CC2CCCO2)cc1", "note": "(centres undefined)", "Potency": "active: 20 µM"},
      {"smiles": "CN1CCC(=C2c3ccccc3CC(=O)c3sccc32)CC1", "Potency": "active: 50.1 µM"},
      {"smiles": "O=C(CCc1nnc2ccc(NCc3ccco3)nn12)Nc1ccc(F)cc1F", "Potency": "inactive"},
      {"smiles": "Cc1ccc(-c2c3c(=O)n(C)c(=O)n(C)c3cn2Cc2ccccn2)cc1", "Potency": "active: 35.5 µM"},
      {"smiles": "COC(=O)CSc1nc2sc3c(c2c(=O)n1C1CCCCC1)CCN(C)C3", "Potency": "inconclusive [inhibitor, partial curve]"},
      {"smiles": "CNC(=O)NC(=O)CSc1ccc(NC(C)=O)cc1", "Potency": "inconclusive [inhibitor, single point]"},
      {"smiles": "CN1C(=O)NC(c2ccccc2[N+](=O)[O-])C2=C1CCCC2=O", "note": "(centres undefined)", "Potency": "inconclusive [inhibitor, full curve, poor fit]"},
      {"smiles": "CCCn1nnnc1NC(=O)c1ccc2ccccc2c1", "Potency": "inactive"},
      {"smiles": "Cc1nc(NC(=O)c2ccccc2)sc1C1(C)CC(c2c(Cl)cccc2Cl)=NO1", "note": "(centres undefined)", "Potency": "active: 31.6 µM"},
      {"smiles": "O=S(=O)(NCCc1csc(-c2ccccc2)n1)c1cccnc1", "Potency": "inconclusive [inhibitor, partial curve]"},
      {"smiles": "O=C(NC(=O)c1ccccc1)Nc1ccccn1", "Potency": "inactive"},
      {"smiles": "COc1ccc(C(CC(=O)N2CCCCC2)c2c(OC)cc(OC)c3c(-c4ccccc4)cc(=O)oc23)cc1", "note": "(centres undefined)", "Potency": "inconclusive [inhibitor, partial curve]"},
      {"smiles": "Cc1noc(C)c1C(=O)Nc1nccs1", "Potency": "inconclusive [inhibitor, partial curve]"},
      {"smiles": "Cc1ccc(S(=O)(=O)N2CCCCC2)cc1NC(=O)CSc1nccn1C", "Potency": "inactive"},
      {"smiles": "Cn1c2ccc(F)cc2c2ncn(Cc3ccco3)c(=O)c21", "Potency": "inconclusive [inhibitor, partial curve]"},
      {"smiles": "Cc1c(O)ccc(C(=O)CN2CCN(c3ccc(F)cc3)CC2)c1O", "Potency": "inconclusive [inhibitor, partial curve]"},
      {"smiles": "Oc1c(C(Nc2ccccn2)c2ccccn2)ccc2cccnc12", "note": "(centres undefined)", "Potency": "active: 22.4 µM"},
      {"smiles": "CC1(c2cc([N+](=O)[O-])cc([N+](=O)[O-])c2)CC(C)(C)N(C(=O)c2ccccc2)c2ccccc21", "note": "(centres undefined)", "Potency": "inactive"},
      {"smiles": "O=C(CCl)Nc1c[nH]c(=O)[nH]c1=O", "Potency": "inconclusive [inhibitor, partial curve]"},
      {"smiles": "O=C(COC(=O)c1ccccc1Cl)NCCC1=CCCCC1", "Potency": "inactive"},
      {"smiles": "Cc1ccc(COn2c(-c3ccc(Cl)cc3)nc3ccc([N+](=O)[O-])cc32)cc1", "Potency": "inconclusive [inhibitor, full curve, poor fit]"},
      {"smiles": "CCn1cnc2cc(NCc3ccc(N(C)C)cc3)ccc21", "Potency": "active: 8.91 µM"},
      {"smiles": "COCCNC(=S)N/N=C1\\CC(C)CC(C)(C)C1", "note": "(centres undefined)", "Potency": "inconclusive [inhibitor, partial curve, poor fit]"},
      {"smiles": "O=C(NC(=S)Nc1ccc(N2CCOCC2)c(Cl)c1)c1cncc(Br)c1", "Potency": "inconclusive [inhibitor, partial curve]"},
      {"smiles": "C=CCn1c(SCC(=O)N2c3ccccc3Sc3ccccc32)nnc1-c1ccco1", "Potency": "inconclusive [inhibitor, partial curve]"},
      {"smiles": "CCOc1ccc(OCCC(=O)N(CC)CC(=O)Nc2ccccc2C(F)(F)F)cc1", "Potency": "inactive"},
      {"smiles": "COC(=O)c1ccccc1NC(=O)CSc1c2c(nc3ccc(Cl)cc13)CCCC2", "Potency": "inactive"},
      {"smiles": "C=CCn1c(O)c(C2=c3ccccc3=NC2=O)c2ccccc21", "Potency": "inconclusive [inhibitor, full curve]"}
    ]}
  ]
}
